Test results reported in PubChem BioAssay AID540267 (National Center for Advancing Translational Sciences (NCATS), 2011).
Hit rate of the full screen: of about 340,000 compounds, about 530 (0.16%) were called active. The shares of active, inactive and inconclusive entries below differ from those in the screen. No stated cut-off is given here; in the data, active means activity change below about -80%; inconclusive means between about -30% and that limit; inactive means weaker than that.

assay: Small Molecules that selectively kill Giardia lamblia: qHTS; conditions: Giardia lamblia trophozoite viability; at 7.66 µM; stronger effect = lower value;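 further: parasites exposed to compound for two days anaerobically before the ATP read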
Method in brief: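 ATP-content bioluminescence gauges trophozoite survival. Cells (100/well) receive compound and incubate anaerobically for 48 hrs at 37 deg C; detection reagent follows for 15-30 min at room temperature.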
On the % scale 0 is the no-effect control and ±100 the full control effect.

Row | Compound | activity change
1 | CCn1c(C(=O)N2CCc3ccccc3C2)cc2sccc21 | inactive: -10.7%
2 | Cc1cccc(OCCC(=O)N(C)CC(=O)Nc2cccc3ccccc23)c1 | inconclusive: -36.7% [inhibitor]
3 | Cc1ccc(S(=O)(=O)/N=C(/Sc2ccccc2C(=O)O)c2ccccc2)cc1 | inconclusive: -45.6% [inhibitor]
4 | COc1ccccc1C(=O)NCCC(=O)Nc1ccc(S(=O)(=O)N2CC(C)CC(C)C2)cc1 (stereo not drawn) | inactive: -26.9%
5 | COc1ccc(C(=O)N(Cc2ccco2)Cc2cc3cc(C)ccc3[nH]c2=O)cc1OC | inactive: -4.51%
6 | CCCC(=O)N(Cc1cc2cc(C)ccc2[nH]c1=O)c1ccccc1OC | inconclusive: -33% [inhibitor]
7 | CCOc1ccccc1N(C(=O)c1snc(C(N)=O)c1N)C(CC)C(=O)NC1CCCC1 (stereo not drawn) | inactive: 12.9%
8 | COc1ccc(CCNC(=O)C(=O)NCC2OCCN2S(=O)(=O)c2ccc(F)cc2)cc1OC (stereo not drawn) | inconclusive: -42% [inhibitor]
9 | CCc1nnc(NC(=O)CSc2nc3c(cc2C#N)CCCC3)s1 | inconclusive: -33.9% [inhibitor]
10 | O=S(=O)(Nc1ccc(F)cc1Cl)c1ccc(-c2cnc(C3CC3)o2)cc1 | inactive: -0.817%
11 | COc1ccc(-n2cc(-c3ccc(OC)c(OC)c3)[nH]c2=S)cc1 | inactive: -8.14%
12 | COc1ccc(-n2nc([N+](=O)[O-])c(=NCCCN3CCCC3=O)n2O)cc1 | active: -85.4%
13 | COc1ccc(C(=O)Nc2ccccc2C(=O)Nc2ccncc2)cc1 | inconclusive: -30.5% [inhibitor]
14 | CC(C)CN(C(=O)COC(=O)c1ccccc1NCc1ccco1)c1c(N)n(Cc2ccccc2)c(=O)[nH]c1=O | inactive: 0.345%
15 | Cc1cc(C)c2oc(C(=O)N(Cc3cccs3)C3CCS(=O)(=O)C3)cc(=O)c2c1 (stereo not drawn) | inconclusive: -37.7% [inhibitor]
16 | COc1ccccc1C(=O)NCCC(=O)NCC1CCCO1 (stereo not drawn) | inactive: -16.9%
17 | CC(=O)NCc1cn2c(C)csc2n1 | inconclusive: -44.1% [inhibitor]
18 | COc1ccc(N2CCCC2)c(NC(=O)c2ccc([N+](=O)[O-])o2)c1 | active: -85.9%
19 | CC(O)CC(C(=O)NNc1ccccc1)C(=O)NNc1ccccc1 (stereo not drawn) | inactive: 8.9%
20 | CC(=O)NC(CCS(C)(=O)=O)C(=O)Nc1cccc(C)c1C (stereo not drawn) | inconclusive: -30.1% [inhibitor]
21 | CCOC(=O)Nc1ccc2c(c1)ncn2C1CCCCC1 | inactive: 17.4%
22 | C=CCn1c(C)cc(C(=O)COC(=O)[C@@H](NC(=O)c2ccccc2Cl)C(C)C)c1C | inconclusive: -74% [inhibitor]
23 | CCOC(=O)c1ccc(OC(=O)CCCCCN=C(N)N)cc1 | inconclusive: -35.6% [inhibitor]
24 | COc1ccc(C2Nc3ccccc3C(=O)N2c2ccccc2)cc1COc1ccc(NC(C)=O)cc1 (stereo not drawn) | inconclusive: -32.9% [inhibitor]
25 | CCOc1ccc2nc(NC(=O)c3cnccn3)sc2c1 | inconclusive: -31.9% [inhibitor]
26 | COc1ccc(CCNC(=O)C(C(=O)c2ccccc2)n2ccccc2=O)cc1OC (stereo not drawn) | inactive: 12.4%

Row | Compound | activity change
27 | COc1ccccc1N1CCN(Cc2c[nH]c3ccccc23)CC1 | inconclusive: -32.8% [inhibitor]
28 | O=C(Nc1ccc(S(=O)(=O)Nc2nccs2)cc1)c1cccc(N2C(=O)c3ccccc3C2=O)c1 | inconclusive: -31.9% [inhibitor]
29 | COCC(=O)Nc1nc2ccc(C)cc2s1 | inactive: -9.55%
30 | COc1ccccc1C1NC=C([N+](=O)[O-])C=C1[N+](=O)[O-] (stereo not drawn) | inconclusive: -37.1% [inhibitor]
31 | CN(C)CCNC(=O)/C(=C/c1ccc(-c2cccc(Cl)c2)o1)NC(=O)c1ccccc1 | inactive: -25.9%
32 | O=C(CN(C(=O)c1ccc(Cl)cc1)N1C(=O)C2CCCCC2C1=O)c1ccc(Cl)cc1 (stereo not drawn) | inconclusive: -31.3% [inhibitor]
33 | NC(C(=O)O)C1ON=C(Cl)C1O (stereo not drawn) | inconclusive: -39% [inhibitor]
34 | O=C(CSCc1ccccc1F)NCc1ccccc1 | inactive: 4.49%
35 | Cc1c(NC(=O)COC(=O)c2cc(-c3ccc(-c4ccccc4)cc3)nc3ccccc23)c(=O)n(-c2ccccc2)n1C | inconclusive: -42.3% [inhibitor]
36 | O=[N+]([O-])c1[nH]cnc1/C=C/c1ccccc1 | inconclusive: -56.9% [inhibitor]
37 | COc1ccc(S(=O)(=O)N(C)C[C@H]2Oc3ccc(NS(=O)(=O)c4ccc(F)cc4)cc3C(=O)N([C@H](C)CO)C[C@@H]2C)cc1 | inconclusive: -36.6% [inhibitor]
38 | Cc1cccc(NC(=O)c2ccc(N3CCCCC3)c([N+](=O)[O-])c2)n1 | inactive: 14.2%
39 | COc1ccc(CCNC(=O)C2CCN(C(=O)c3ccc(Cl)cc3)CC2)cc1 | inactive: -20.2%
40 | Cc1nc(NCc2ccco2)c2cn[nH]c2n1 | inconclusive: -30.7% [inhibitor]
41 | COc1ccc(C(c2c(O)ccc3ccccc23)N2CCOCC2)c(OC)c1 (stereo not drawn) | inactive: 5.15%
42 | CCc1ccc(Nc2nnc(SCC(=O)NCCN3C(=O)CSC3=O)s2)cc1 | inconclusive: -35.7% [inhibitor]
43 | Cc1cccc(CCN2CCN=C2Nc2ccccc2)c1 | inactive: -4.94%
44 | CCN(C(=O)CCN1C(=O)/C(=C/c2ccccc2)SC1=S)C1CCS(=O)(=O)C1 (stereo not drawn) | inactive: 11.6%
45 | O=C1CCc2cc(S(=O)(=O)NCCc3ccc(Cl)cc3)cc3c2N1CC3 | inactive: -9.63%
46 | CCOc1ccc(N(C)C(=O)CCc2nnc3ccc(N4CCCCC4)nn23)cc1 | inconclusive: -43.4% [inhibitor]
47 | O=C(NCCCN1CCCC1=O)c1ccc([N+](=O)[O-])s1 | inconclusive: -44% [inhibitor]
48 | CC12CN3CC(C)(CN(C1)C3c1ccc3c(c1)OCO3)C2=O (stereo not drawn) | inconclusive: -37.8% [inhibitor]
49 | Cc1ccc(NC(=O)/C(=C/c2cccc([N+](=O)[O-])c2)NC(=O)C2CCCCC2)c(C)c1 | inactive: 4.08%
50 | O=C(Nc1ccc(-c2cn3ccsc3n2)cc1)C1CCCC1 | inconclusive: -38.8% [inhibitor]
51 | Cc1cccc(OCCSc2nc3ccccc3n2CC(=O)O)c1 | inconclusive: -32.7% [inhibitor]
52 | Cc1cc(C)cc(Oc2ccc(NC(=O)C3CC=CCC3C(=O)O)cc2)c1 (stereo not drawn) | inconclusive: -55.5% [inhibitor]

Row | Compound | activity change
53 | COc1ccc(OC)c(/C=C/c2nc3ccccc3[nH]c2=O)c1 | inactive: 8.3%
54 | CC1CC(CCC(=O)NC(=S)Nc2ccc(S(N)(=O)=O)cc2)C(=O)O1 (stereo not drawn) | inconclusive: -36.6% [inhibitor]
55 | COC(=O)CSc1nc2[nH]ncc2c(=O)[nH]1 | inconclusive: -30.5% [inhibitor]
56 | O=C(NCc1cccc(Cl)c1)NC(=O)c1csc([N+](=O)[O-])c1 | inconclusive: -50.7% [inhibitor]
57 | C#CCNC(=O)C1=C[C@@H](c2ccc(C#C)cc2)[C@H](CCCO)[C@@H](OCC)O1 | inconclusive: -44% [inhibitor]
58 | CC(=O)c1ccc(OCC(=O)OCc2cc(-c3ccco3)on2)cc1 | inconclusive: -34.8% [inhibitor]
59 | CCSc1nc2c([nH]c3ccccc32)c(=O)n1C | inconclusive: -30.6% [inhibitor]
60 | O=C(Cn1nc(-c2ccco2)ccc1=O)Nc1ccc(Cl)c(Cl)c1 | inactive: 16.9%
61 | Cc1ccc(S(=O)(=O)Nc2ccccc2C(=O)N2CCCCC2)cc1 | inconclusive: -30.6% [inhibitor]
62 | O=C(CSc1ccc(Br)cc1)N1CCN(S(=O)(=O)c2ccccc2)CC1 | inactive: 0.767%
63 | Cc1cccc(CN(C)C)c1CC(O)(c1ccccc1)c1ccccc1 | inactive: -23.9%
64 | CC(C)(C)c1csc(NC(=O)c2ccncc2)n1 | inactive: -4.51%
65 | CC(C)N1C(=S)N(Cc2ccco2)C(=O)C1CC(=O)Nc1ccccc1 (stereo not drawn) | inactive: 3.73%
66 | CCCc1ccc(-c2cc(C(=O)NC3=NCCS3)c3ccccc3n2)cc1 | inconclusive: -36.4% [inhibitor]
67 | CC(C)Nc1ncnc2c1cnn2-c1ccc(Cl)cc1 | inconclusive: -32.3% [inhibitor]
68 | O=C(O)/C=C/C(=O)NC1CCC(CC2CCC(NC(=O)/C=C/C(=O)O)CC2)CC1 (stereo not drawn) | inconclusive: -31.5% [inhibitor]
69 | Cc1cccc(NC(=O)c2cnc3ccccn3c2=O)c1 | inconclusive: -40% [inhibitor]
70 | O=C(Cc1ccc(Br)cc1)Nc1ncc([N+](=O)[O-])s1 | active: -92.9%
71 | O=C(CCNC(=O)c1ccc(Br)cc1)Nc1ncccc1O | inactive: 5.51%
72 | c1ccn2cc(-c3ccc4c(c3)OCCO4)nc2c1 | inconclusive: -61.7% [inhibitor]
73 | CC(C)(C)OC(=O)C[C@H]1C/C=C\C[C@@H](CC(=O)N(CCO)Cc2ccccc2)C(=O)N[C@H](C(C)(C)C)COC1=O | inconclusive: -42.5% [inhibitor]
74 | O=C(Nc1ccccc1CC[N+](=O)[O-])N1CCN(c2ccccc2)CC1 | inconclusive: -41.2% [inhibitor]
75 | Cc1ccc(NC(=S)Nc2cccc3cnccc23)cc1C | inactive: 10.2%
76 | CCOC(=O)N1CCC(NC(=O)Cn2ncc3c2-c2cc(C)ccc2OC3)CC1 | inconclusive: -37.1% [inhibitor]
77 | Cc1ccccc1N/C(SCc1ccc(Cl)cc1)=C(/C#N)C(=O)NCc1ccco1 | inactive: -7.33%
78 | O=C(/C=C/c1ccc(Cl)c([N+](=O)[O-])c1)Nc1ccc(N2CCCC2)c(Cl)c1 | inconclusive: -30.6% [inhibitor]
